In PMC4336329 (PLoS ONE, 2015):
Screen size: about 310,000 compounds; about 2,200 (0.71%) showed an effect of 50% or more. Effects have a minus sign here. The list shows a part of the results.

The compounds below were run against human ether-à-go-go-related gene (hERG) potassium channel (human, UniProt Q12809) (assay: primary screen, population patch clamp on CHO cells stably expressing hERG).
Chain of human ether-à-go-go-related gene (hERG) potassium channel (Q12809 whole entry, looked up): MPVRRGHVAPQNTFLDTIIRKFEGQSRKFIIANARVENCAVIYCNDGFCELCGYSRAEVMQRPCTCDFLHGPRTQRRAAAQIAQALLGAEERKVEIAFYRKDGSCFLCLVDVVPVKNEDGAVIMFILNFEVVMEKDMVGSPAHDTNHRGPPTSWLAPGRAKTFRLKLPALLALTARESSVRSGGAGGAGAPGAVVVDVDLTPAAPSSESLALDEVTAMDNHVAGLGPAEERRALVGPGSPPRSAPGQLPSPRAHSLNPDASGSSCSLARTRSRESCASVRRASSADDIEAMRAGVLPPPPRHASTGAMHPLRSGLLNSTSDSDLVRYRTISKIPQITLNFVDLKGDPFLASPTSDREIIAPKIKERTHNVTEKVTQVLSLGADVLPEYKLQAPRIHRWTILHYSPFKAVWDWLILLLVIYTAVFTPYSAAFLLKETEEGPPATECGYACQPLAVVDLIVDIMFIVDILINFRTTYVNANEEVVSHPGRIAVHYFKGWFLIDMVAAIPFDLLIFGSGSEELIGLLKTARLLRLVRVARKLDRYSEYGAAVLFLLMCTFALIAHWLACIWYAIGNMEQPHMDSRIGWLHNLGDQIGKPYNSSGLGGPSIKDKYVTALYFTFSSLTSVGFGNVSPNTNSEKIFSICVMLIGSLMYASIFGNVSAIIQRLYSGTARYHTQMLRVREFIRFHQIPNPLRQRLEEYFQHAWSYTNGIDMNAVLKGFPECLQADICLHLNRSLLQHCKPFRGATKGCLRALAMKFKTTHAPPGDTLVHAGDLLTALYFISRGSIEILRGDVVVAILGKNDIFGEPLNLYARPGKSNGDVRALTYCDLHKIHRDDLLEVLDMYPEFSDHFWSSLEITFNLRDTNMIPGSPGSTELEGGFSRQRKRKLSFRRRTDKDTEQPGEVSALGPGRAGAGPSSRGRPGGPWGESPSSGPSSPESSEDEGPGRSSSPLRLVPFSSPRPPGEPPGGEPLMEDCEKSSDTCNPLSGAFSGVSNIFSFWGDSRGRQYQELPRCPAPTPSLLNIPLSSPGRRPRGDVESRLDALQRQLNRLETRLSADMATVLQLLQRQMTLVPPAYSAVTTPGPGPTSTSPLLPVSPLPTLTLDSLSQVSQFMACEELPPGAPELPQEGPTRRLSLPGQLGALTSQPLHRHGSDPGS
For `CCc1ccc2[nH]c(C(=O)Nc3ccc(C)c(F)c3)cc2c1`, the “hERG current change (%, negative = inhibition) at 1uM” value was 16.7%. For `Cc1cc(NC(=O)Cn2cnc3c(nnn3-c3ccc(C)c(Cl)c3)c2=O)no1`, the “hERG current change (%, negative = inhibition) at 1uM” value was 3.73%. In the case of `S=C(Nc1cccc(Cl)c1)N1CCOCC1`, the “hERG current change (%, negative = inhibition) at 1uM” value is reported as -3%. `Cc1ccc(Nc2nc(N)nc(CN3CCN(c4ccccc4)CC3)n2)cc1Cl` was tested, and the “hERG current change (%, negative = inhibition) at 1uM” value was -10.8%. For `NC(=O)CS(=O)(=O)c1nc2ccccc2n1CC(=O)N1CCCCC1`, the “hERG current change (%, negative = inhibition) at 1uM” value was 8.51%. `O=C(O)CCC(=O)Nc1sc2c(c1C(=O)NC1CCCC1)CCCC2` was tested, and the “hERG current change (%, negative = inhibition) at 1uM” value was 3.19%. With `Cc1cccc(-c2noc(CCCOc3ccc(Cl)cc3Cl)n2)c1` the “hERG current change (%, negative = inhibition) at 1uM” value was 4.69%. In the case of `CC1CCN(S(=O)(=O)c2ccc3c(c2)N(CC(=O)NCCN2C(C)CCCC2C)C(=O)CS3)CC1` (centres unmarked), the “hERG current change (%, negative = inhibition) at 1uM” value is reported as -4.99%. In the case of `CCc1ccc(-n2c(SCc3cc(=O)n4cc(Br)ccc4n3)nc3[nH]ncc3c2=O)cc1`, the “hERG current change (%, negative = inhibition) at 1uM” value is reported as 3.35%. With `CC(C)(C)C(=O)NC(=S)N1CCOCC1` the “hERG current change (%, negative = inhibition) at 1uM” value was 14.3%. In the case of `Nn1c(SCC(=O)Nc2cccc(S(N)(=O)=O)c2)nnc1C1CC1`, the “hERG current change (%, negative = inhibition) at 1uM” value is reported as 15%. For `N#Cc1c(-c2ccccc2)nc(SCC(=O)N2c3ccccc3Sc3ccccc32)[nH]c1=O`, the “hERG current change (%, negative = inhibition) at 1uM” value was 15.1%. In the case of `CCOc1ccc(NC(=O)CSc2nnc(C(C)C)n2CC)cc1`, the “hERG current change (%, negative = inhibition) at 1uM” value is reported as 14.6%. In the case of `COc1cccc(CC(=O)OCC(=O)N(C)CC(=O)Nc2ccc(Cl)c(C(F)(F)F)c2)c1`, the “hERG current change (%, negative = inhibition) at 1uM” value is reported as 15%. In the case of `O=C(N/N=C/c1cccc([N+](=O)[O-])c1)c1nc2ccccc2c(=O)[nH]1`, the “hERG current change (%, negative = inhibition) at 1uM” value is reported as 9.58%. `O=C(COC(=O)CCS(=O)(=O)c1ccccc1)Nc1ccc(N2CCCCC2)cc1` was tested, and the “hERG current change (%, negative = inhibition) at 1uM” value was 12.6%. In the case of `CCS(=O)(=O)c1ccc(O)c(NC(=O)Nc2ccccc2)c1`, the “hERG current change (%, negative = inhibition) at 1uM” value is reported as 12.4%. In the case of `CC1CCCC(C(=O)O)N1C(=O)CCSSCCC(=O)N1C(C)CCCC1C(=O)O` (centres unmarked), the “hERG current change (%, negative = inhibition) at 1uM” value is reported as 17%. `Cc1cc(C)nc(Nc2ccc(Cl)cc2C)n1.Cl` was tested, and the “hERG current change (%, negative = inhibition) at 1uM” value was 16.7%. `COc1ccc(/C=N/N=C2/NC(=O)C(CC(=O)O)S2)cc1OCc1ccc(Cl)cc1` (centres unmarked) was tested, and the “hERG current change (%, negative = inhibition) at 1uM” value was -2.33%. `CS(=O)(=O)N(CC(=O)N1CCN(Cc2ccccc2)CC1)c1cccc(F)c1` was tested, and the “hERG current change (%, negative = inhibition) at 1uM” value was -9.13%. For `Cl.O=S(=O)(NC1CCN(Cc2ccccc2)CC1)c1ccc2ccccc2c1`, the “hERG current change (%, negative = inhibition) at 1uM” value was 4.69%. With `O=C(N/N=C/c1c[nH]c2ccccc12)c1cccc([N+](=O)[O-])c1` the “hERG current change (%, negative = inhibition) at 1uM” value was 8.58%. In the case of `O=C(CCNS(=O)(=O)c1cccc2nonc12)N1CCN(c2cccc(Cl)c2)CC1`, the “hERG current change (%, negative = inhibition) at 1uM” value is reported as -0.137%. With `CCCCc1cn([C@@H](CCCCNC(=O)OC(C)(C)C)C(=O)N2CCN(C(=O)OC(C)(C)C)CC2)nn1` the “hERG current change (%, negative = inhibition) at 1uM” value was 11.2%. With `O=C(NC(=S)Nc1cc(S(=O)(=O)N2CCOCC2)ccc1O)c1ccco1` the “hERG current change (%, negative = inhibition) at 1uM” value was 11.1%. For `O=C(Nc1ccccc1F)C1CC1c1ccccc1` (centres unmarked), the “hERG current change (%, negative = inhibition) at 1uM” value was 12.7%. `O=C(OCC1OC(n2ccc(=O)[nH]c2=O)C(Cl)C1O)c1ccccc1` (centres unmarked) was tested, and the “hERG current change (%, negative = inhibition) at 1uM” value was 1.97%. `O=C1/C(=C\c2ccccc2)SC(=S)N1CCC(=O)N1CCCCC1CCO` (centres unmarked) was tested, and the “hERG current change (%, negative = inhibition) at 1uM” value was 4.17%. With `COc1ccc(-c2csc(NC(=O)CC(NC(C)=O)c3ccccc3)n2)cc1OC` (centres unmarked) the “hERG current change (%, negative = inhibition) at 1uM” value was 2.94%. `CCc1ccc(/C=C2\SC(=S)N(CCCC(=O)Nc3ccccc3C(=O)O)C2=O)cc1` was tested, and the “hERG current change (%, negative = inhibition) at 1uM” value was 13.3%. With `COc1ccc(/C=C/c2nnc(NC(=O)COc3cccc(C)c3)s2)cc1` the “hERG current change (%, negative = inhibition) at 1uM” value was 6.26%. In the case of `CCCCNC(=O)Cn1c(=O)oc2cc(S(=O)(=O)N3CC(C)CC(C)C3)ccc21` (centres unmarked), the “hERG current change (%, negative = inhibition) at 1uM” value is reported as 8.02%. With `CCOc1cc(C2C3=C(CC(C)(C)CC3=O)N(CCCOC)C3=C2C(=O)CC(C)(C)C3)ccc1O` the “hERG current change (%, negative = inhibition) at 1uM” value was 14%. For `CCN(CC)c1nc(Nc2ccc(Cl)cc2)nc(OCC#N)n1`, the “hERG current change (%, negative = inhibition) at 1uM” value was 8.46%. For `COc1ccccc1CN1CC(C(=O)NCc2cccnc2)CC1=O` (centres unmarked), the “hERG current change (%, negative = inhibition) at 1uM” value was -0.197%. With `O=C(C1CCCC1)N1CCC(CC2CC(c3ccc(Cl)cc3)=NO2)(C(=O)NCC2CCCCC2)CC1` (centres unmarked) the “hERG current change (%, negative = inhibition) at 1uM” value was 5.7%. For `O=C(NCc1ccccc1)C12CC3CC(CC(C3)C1)C2`, the “hERG current change (%, negative = inhibition) at 1uM” value was 9.12%. `COc1cc(NC(=O)c2cc(-c3ccco3)on2)c(OC)cc1Cl` was tested, and the “hERG current change (%, negative = inhibition) at 1uM” value was -10.4%. For `Cc1cc(N)c(C)c([N+](=O)[O-])c1C`, the “hERG current change (%, negative = inhibition) at 1uM” value was 15%. For `CCOC(=O)c1oc2ccccc2c1CN1CC(C)OC(C)C1` (centres unmarked), the “hERG current change (%, negative = inhibition) at 1uM” value was 7.86%. `Cc1ccc(/C=N/NC(=O)c2cccnc2)s1` was tested, and the “hERG current change (%, negative = inhibition) at 1uM” value was 14.4%. With `CC(C)(CO)NCc1cccs1.Cl` the “hERG current change (%, negative = inhibition) at 1uM” value was 12.7%. With `Cc1onc(-c2ccccc2Cl)c1C(=O)OCN1C(=O)c2ccccc2C1=O` the “hERG current change (%, negative = inhibition) at 1uM” value was 7.89%.
